Drawing on the RNAGym collection of RNA variant scans (doi:10.1093/nar/gkz1192), this text covers self-cleavage for 167 variants.

First the molecules themselves.
B1: CPEB3 Ribozyme (parent)
chain: UAACAGGGGGCCACAGCAGAAGCGUUCACGUCGCAGCCCCUGUCAGAUUCUGGUGAAUCUGCGAAUUCUGCUGUAUAUCUC

Read counts are not given, so values of variants with three or more changes are uncertain.

In the series the parent is B1. The experiment in a line: self-cleavage, relative activity (ratio to wild type); higher = more cleavage; in vitro, sequencing. Summed up: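 Barcoded CPEB3 ribozyme mutants, produced by rounds of error-prone PCR, self-cleaved while being transcribed with T7 RNA polymerase for 5 hours at 37°C and during a subsequent 15 min DNase I step before EDTA was added. Sequencing of template-switched cDNA on Illumina gave cleaved and total reads, and DNA sequencing assigned barcodes to variants. Each variant's relative activity is its cleaved/total read fraction divided by the unmutated ribozyme's fraction, averaged across three batches. A variant needed a minimum of 5 reads.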
With C12G U43G U60C A64U U80C, the self-cleavage is 0.06.
Regarding A13G C23A U31A G73A, the self-cleavage turned out to be 0.1.
As for A13G C17U A47G U60C, the self-cleavage is 0.1.
Take A13G A15G U41A A45U: the self-cleavage came out at 0.28.
Next, C12A A18G A28G U66A U78C: 0.14; C12U U58A A64G: 0.53.
Next, C12U U43C A56G A65G C71U: 0.06.
Next, A13G A28G U43A A64G: 0.36.
For C12U U43A U60A, the self-cleavage worked out at 0.54.
Next, A13G A20G U49C A77U: 0.24.
Next, A13G A45G U80C: 0.55; A13G A28G U54C A64G: 0.15.
On to A13C A35C U43C A65G U69C, for which the self-cleavage worked out at 0.1.
The figure for A13G A18G U43C A45G U67A is 0; for A13G A28G C39A U66C G70A A75G it is 0.48; for C12A U26C U31C U49A G70A it is 0.08.
Consider A13G A35G U49A A75G, for which the self-cleavage was 0.39.
The figure for A13G C17G U41C U49C is 0.25.
Next, A13C A28G U31C U43C: 0.17.
The figure for C12A U49C C50A is 0.93; for A13G A47G U48G U72C it is 0.1; for C12U U26A U51A A56G C59U it is 0.42.
In the case of A13G C27U G53A, the self-cleavage is 0.47.
Next, C12U A20U U41A U43A: 0.06; A13G A20U A47G A75G: 0.12; C12G A18U A28U U51C: 0.16.
Next, A13C A28G A35G A64U: 0.26; A13G A15G C38U U54C U72C: 0.4; A13G A21G A57G U58A U76C: 0.18.
Regarding A13C U31C G36A A47U U54C, the self-cleavage came out at 0.07.
The figure for C12U A18U U51A U72A is 0.34; for C12G A13G U43A A45U U48C U69A it is 0.05.
Take C12U U43A U48C: the self-cleavage worked out at 0.74.
The figure for A13C A15U A18U U43C U51C U58C U60C is 0.07.
The figure for C12U A13G A21G U26A A65U is 0.04; for C12U U25C U60C it is 0.12.
The figure for A13G C32A U43C U67A U72C is 0.07.
A13G A64U U69A U78C: the self-cleavage was found to be 0.22.
Next, C12U A28U U31A A65G: 0.28.
With A13C U26A C39A U67C U74A, the self-cleavage amounted to 0.11.
The figure for A13G C23A U43A A45G A65G U66A U76C is 0.05.
The figure for C12G A28U A45G A64G is 0.22; for A13C C29U C39G A45C G55A it is 0.05; for A13G C32A A45U G70C it is 0.09.
Consider C12G U41G U76A, for which the self-cleavage is 0.31.
The figure for A13C A21G G30A A64G U66C is 0.21; for A13G A15U A35U U41C U60C it is 0.07; for A13G A35G U51A U54A A57G it is 0.72.
The figure for C12G A13U C29G is 0.13; for C12U A18G U72C it is 0.94.
For C12G A28G U41C U48C U67C, the self-cleavage was 0.
The figure for A13C A20U A21U U78A is 0.26; for A13G A35G A56U A65G it is 0.18.
The figure for C12G C17G U25C is 0.35.
The figure for C12A A15U U31C is 0.44; for C12G A20G G30A A35G U74C it is 0.07.
Take A13G A21G U54C C59G A77G: the self-cleavage stood at 0.13.
As for C12U C40U U72C, the self-cleavage came to 1.19.
The figure for C12U G33A A64G U66C is 0.09; for A13G C29U U51C U69C it is 0.15.
Turning to A13G A18G G24A U26C A56U U72C A75G, the self-cleavage came out at 0.06.
As for A13G A20G U25G U43A U54A, the self-cleavage came out at 0.06.
The figure for A13G C17U U51A is 0.22; for C12G C23U U80G it is 0.14.
Turning to A13C U25A A56G U74C, the self-cleavage was determined as 0.1.
Next, C12G A15C A21U U54G: 0.07.
The figure for A13G A15G C29A A56G A64U U67C U76A is 0.06; for A13G A18G A45G U49C U78C it is 0.26.
Next, A13G C29U G46U C62U U69A: 0.11.
Turning to C12U A18U A21G, the self-cleavage was found to be 0.37.
As to A13C A45U U49A A64G, the self-cleavage was 0.13.
C12A U43C A57G U72C: the self-cleavage amounted to 0.51.
With C12U U26C U51A, the self-cleavage came out at 0.69.
The figure for C12U A15G U43C U48C A56U is 0.14.
Consider A13G A21G A45G, for which the self-cleavage stood at 0.33.
On to C12A A18U U78C, for which the self-cleavage worked out at 0.42.
Regarding C12U A18G G24A A35G A64G U66C U72C, the self-cleavage turned out to be 0.1.
In the case of C12G C14A U26A A28U C38A G63U, the self-cleavage came to 0.05.
Turning to C12U G30A U31C C39U U78C, the self-cleavage is 0.07.
Next, C12U A13U A28G U41A A64U A77G U78C: 0.05.
Next, A13G A21G U48A: 0.05; C12A A28G A47G G52A A65G U78G: 0.15.
For C12U A57G U80C, the self-cleavage is 1.16.
For the variant C12U A21U U48C U80C, the self-cleavage was 0.1.
Take A13G C38U U43C U72C: the self-cleavage is 0.18.
Next, A13G A28G U67C U69C: 0.06; A13G A15U G30A U31C C32G G33U A45U: 0.07; C12G C17G A28G G61A: 0.04.
Turning to A13C A15G U41A A64G, the self-cleavage was 0.09.
The figure for C12U C17U A45G U58C A65G is 0.17; for A13G A18U A75G it is 0.21; for C12U C27A A35U it is 0.09.
In the case of A13C A56G U72C, the self-cleavage came to 0.35.
For the variant A13G A57G U78C, the self-cleavage stood at 0.64.
On to A13G A28C A77G, for which the self-cleavage came to 0.38.
Next, C12U U66C U72C: 0.87; A13C A18G U25C A28U C37A U60A: 0.07.
Regarding C12U U69C A75C A77G, the self-cleavage is 1.12.
Next, A13G A28U A77G: 0.77; A13G A15G A18U U67G: 0.29.
For the variant A13G A64G U66C, the self-cleavage stood at 0.15.
Next, C12G C34A U43C A45G U49C A77G: 0.03; A13G A21G C59A C71U U72C: 0.13; A13G A21G C29U U43G: 0.06.
Next, A13G C17A U25C U69C A75G: 0.09.
As to A13G A18C U41C, the self-cleavage was found to be 0.39.
Next, A13G A47U U67C U72C: 0.08; A13G A18C U25C U48C U67A: 0.05; A13G C23U U25A A47U A77G: 0.05.
Consider A13C U25C A28G, for which the self-cleavage was found to be 0.31.
The figure for A13G A18G A47U U54G U67C U72C is 0.04.
Regarding A13C G36C U69C U72A, the self-cleavage came to 0.21.
For A13G A35G A65G G70A, the self-cleavage is 0.15.
The figure for C12G U26A U43A U48A U49C C68U U80A is 0.03.
With A13C C17A A18G C29A U51C A75G, the self-cleavage turned out to be 0.22.
Next, A13G C14A G33A U51A U54C: 0.22; C12G U51A C62U: 0.11.
Next, C12U C14U G46U: 0.76; A13G A21G U26C U43C U48C C71U: 0.14; C12A A15G C39A U43C U60A: 0.35.
Next, C12G A15G U25C C40A: 0.06; A13G A20G U80C: 0.75; A13G A21U A28U A45G: 0.18.
On to A13G C34U U60A A64G, for which the self-cleavage amounted to 0.18.
For C12G A20U A65G U67A U74A, the self-cleavage is 0.12.
For the variant A13G C23A U25C U49C U69A, the self-cleavage was 0.04.
Consider A13C U69A C79U, for which the self-cleavage came to 0.21.
As to A13G A18U U74C, the self-cleavage turned out to be 0.21.
Take C12A A28U U58A: the self-cleavage turned out to be 0.32.
Next, C12A A18U U31A: 0.49; A13G A20G U69G: 0.55; C12G A21G U26C A47G U54C A56G: 0.1.
Next, A13G A21G A28U U43C U49A U80A: 0.04; C12U A75G U78C: 1.25; A13G A28G U41C: 0.21.
For C12G A13G U31A U41C U48C U78A, the self-cleavage turned out to be 0.15.
The figure for A13G C23A U60C C79U is 0.38.
As to C12U A57G G73A U80C, the self-cleavage is 1.31.
On to A13G A20G A28G A64G U66C U78C, for which the self-cleavage was 0.08.
Turning to A13G A45G A56G U80A, the self-cleavage was 0.68.
On to A13G A18U U49C U80A, for which the self-cleavage is 0.34.
On to C12U U25C C27A U51C G52U U54G U69C, for which the self-cleavage came out at 0.08.
As to C12A U31C A35U, the self-cleavage stood at 1.21.
The figure for A13G A21C U31A U51C is 0.05; for A13G A45U U67C U78C it is 0.11; for A13C A21C A35G G36A U48A C79U it is 0.13.
Regarding A13C A21G U49A G55A U60C, the self-cleavage amounted to 0.06.
Next, A13G A28G A64U: 0.18; C12U A13U U26C U49C U67C: 0.11.
For A13G A20G A64G, the self-cleavage is 0.31.
In the case of A13G A45G C62U, the self-cleavage stood at 0.24.
With A13G A18G A64U, the self-cleavage worked out at 0.27.
The figure for C12U A21G U26C is 0.43.
Take A13G A35U C40A: the self-cleavage stood at 0.38.
Regarding A13G A20G A45U C50A, the self-cleavage turned out to be 0.3.
Turning to C12A U25C A64G, the self-cleavage is 0.33.
The figure for A13G A21G C32G A47U U69A U72C is 0.07.
For A13G A47U A64U A65G, the self-cleavage is 0.33.
As for C12U A56U U60A, the self-cleavage came to 0.36.
Regarding A13C A57U U58A U78A, the self-cleavage stood at 0.16.
Next, A13C A15G U54A A64G C68A: 0.15; A13G A20U U31A G46A U49C U54G A57G: 0.03.
Next, A13C A18G U66C U72A: 0.15; A13G A18U U41C U66C: 0.51; C12U A18G U48C A56U: 0.17.
Next, C12A A15U U72A: 0.59; C12A A28C A45G: 0.4.
